Source: the supplement of paper PMC3334620
Over roughly 33,000 sequences, “E-score (-0.5 to 0.5)” has its median near -0.012; the highest 2% begin near 0.27. The list shows a part of the results.

Biological target: T1, Vhr1 (UniProt P40522)
T1 sequence: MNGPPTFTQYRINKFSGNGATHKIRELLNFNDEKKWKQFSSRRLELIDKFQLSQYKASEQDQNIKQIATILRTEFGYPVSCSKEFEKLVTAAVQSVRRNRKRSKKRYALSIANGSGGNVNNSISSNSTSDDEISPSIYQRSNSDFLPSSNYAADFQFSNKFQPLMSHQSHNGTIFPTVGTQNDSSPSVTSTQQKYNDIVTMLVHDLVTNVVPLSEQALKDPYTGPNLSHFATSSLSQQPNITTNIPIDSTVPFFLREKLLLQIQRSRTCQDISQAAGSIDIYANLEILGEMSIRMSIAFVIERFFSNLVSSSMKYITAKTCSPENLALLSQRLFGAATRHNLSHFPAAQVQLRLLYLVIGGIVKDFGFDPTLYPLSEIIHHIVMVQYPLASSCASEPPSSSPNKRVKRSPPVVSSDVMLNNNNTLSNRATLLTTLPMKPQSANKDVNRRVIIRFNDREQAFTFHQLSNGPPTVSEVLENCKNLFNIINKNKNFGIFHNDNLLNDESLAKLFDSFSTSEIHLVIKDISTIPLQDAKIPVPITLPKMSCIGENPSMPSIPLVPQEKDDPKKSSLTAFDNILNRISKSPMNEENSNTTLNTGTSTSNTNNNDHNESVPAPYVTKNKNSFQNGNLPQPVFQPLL
Test: PBM E-score (8-mer binding enrichment) (E-score (-0.5 to 0.5)); higher = stronger / more preferred TF binding; most listed sequences are background and not binding sites
Details: protein concentration: 200 nM; construct: GST-full length
Procedure: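 Universal 'all 10-mer' protein binding microarrays (Agilent AMADID 015681) probed with GST-tagged S. cerevisiae TFs (full-length or DBD) made by in vitro transcription/translation (PURExpress), about 100-200 nM. Bound TF was detected with fluorescent anti-GST. Each ungapped 8-mer (which stands for itself and its reverse complement) is scored by the PBM enrichment score (E-score), a modified Wilcoxon-Mann-Whitney statistic from -0.5 to +0.5, computed with the Universal PBM Analysis Suite. Scale: above 0.35 generally sequence-specific binding.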

| Sequence | PBM E-score |
| --- | --- |
| ATGAGACA | 0.234 |
| GCATCGCC | -0.137 |
| CAATAAGC | -0.035 |
| AGTAGTAC | 0.121 |
| ATATGAGC | 0.122 |
| GGCATACC | -0.118 |
| AAGGTTAT | 0.0219 |
| AACCGAGT | 0.0637 |
| CAAAGCTG | -0.0775 |
| CCTGCGTA | -0.0395 |
| AACTGTTA | 0.00067 |
| GGGGTCTA | -0.0418 |
| GTATCCCA | -0.0357 |
| CACTACTA | 0.125 |
| ATTCGCAA | 0.0447 |
| AAAGGCAA | -0.00942 |
| CACCCATG | 0.184 |
| ACAGAAAA | 0.0629 |
| AGATCATA | 0.203 |
| CCGCAAGA | 0.0543 |
| AATATAGA | -0.0698 |
| AAACTCCT | -0.191 |
| GCATAGCA | -0.0925 |
| AAGTTTAT | -0.0565 |
| AGGTGCAC | -0.0699 |

| Sequence | PBM E-score |
| --- | --- |
| GACCTTGC | -0.157 |
| GTTACAGA | -0.144 |
| ATCTCTCG | -0.0016 |
| CCCACGCC | -0.112 |
| ATACGAAT | -0.0149 |
| TCGATTCA | 0.0773 |
| CCTCATCA | 0.0489 |
| GTAAAGAA | -0.159 |
| CGAATGAC | 0.215 |
| AAGAAGGC | -0.285 |
| CGTAGCTC | 0.0681 |
| CATTTAAG | -0.267 |
| GACGCCTC | -0.0533 |
| GGGAATTA | -0.252 |
| CACTCTAA | 0.0466 |
| ACCGTTAC | 0.0489 |
| GCAGTTAC | -0.118 |
| CATTATAG | 0.0846 |
| CACTGTAC | -0.00349 |
| CATAATGC | -0.0446 |
| ACGTTGCT | 0.0258 |
| GGCAGGAC | -0.134 |
| GCCTCCCA | -0.165 |
| GAACGACA | 0.0721 |
| CACTACGA | 0.0137 |

| Sequence | PBM E-score |
| --- | --- |
| GAAGCTGA | -0.0786 |
| GGATTAGA | -0.101 |
| AGATAACG | 0.0166 |
| GATTTACA | -0.115 |
| AGTTTTTG | -0.0458 |
| GCACCGAC | 0.0173 |
| AAAAGTGC | -0.152 |
| GAATCATA | 0.397 |
| CATCACTA | -0.00513 |
| GTCATAAC | 0.125 |
| CCACCGGG | -0.00778 |
| CATTTAAA | 0.0721 |
| CCGGTTTA | -0.153 |
| AGGCCAGA | 0.0413 |
| ATTACTTA | -0.0137 |
| CTTATTTC | -0.065 |
| CGTTACCA | 0.0673 |
| CCGTACCA | 0.102 |
| AACCCGCG | 0.238 |
| AACATGTG | 0.227 |
| CGGTGACA | 0.148 |
| CATAGCAC | 0.195 |
| CCCCGACG | 0.02 |
| CTAAACAG | -0.00454 |
| CTAGACGC | -0.154 |

| Sequence | PBM E-score |
| --- | --- |
| CTAAAGAG | -0.0856 |
| CTAAGACA | 0.00502 |
| GACAAATC | -0.0258 |
| GAAAAAAA | -0.0556 |
| CCGGTTTC | 0.00669 |
| AGGCCCTG | -0.162 |
| TCTGCTCA | -0.0147 |
| CAAAAGGG | -0.143 |
| GAAAAGAC | 0.0806 |
| CGCCTTAC | -0.144 |
| ATAGATAC | -0.0435 |
| GTACACGA | 0.137 |
| CCGTATGA | 0.199 |
| TTACTGAA | -0.183 |
| AGCAGTCC | -0.151 |
| CGCGCTGA | -0.0182 |
| GACATTCA | 0.0415 |
| GGAAGTAA | -0.17 |
| CGCTGGAA | -0.135 |
| GGTAATTA | -0.0818 |
| GACATGAC | 0.202 |
| CCGAATTC | -0.00329 |
| AAGCTCTA | -0.267 |
| ATCACGGG | 0.00381 |
| CGACGGCA | -0.181 |

| Sequence | PBM E-score |
| --- | --- |
| GAAATGCA | -0.00636 |
| GCGCTGCC | -0.188 |
| CAATCGAG | 0.00933 |
| ACCATGTC | 0.144 |
| CGGTTTTA | -0.0933 |
| CATTCCCC | 0.14 |
| GCGTGACA | 0.0875 |
| CTGCTATA | 0.0862 |
| CCTAAGCA | -0.108 |
| AGTAACTG | -0.155 |
| ACGGACAA | 0.0257 |
| AGCAAACT | 0.0348 |
| CGTGTTGC | 0.103 |
| CGATCGCG | 0.0985 |
| ACTTTTTC | -0.142 |
| CAGCCTCA | 0.00707 |
| AAAATAGC | -0.171 |
| CACTTATC | 0.078 |
| CTGGGCAA | -0.00184 |
| CAATTTAA | -0.0106 |
| ACTGGTAG | 0.161 |
| ACGACTTC | 0.0846 |
| GGCGTACA | 0.00512 |
| ATATTCAC | 0.0124 |
| CCACGTCC | -0.132 |

| Sequence | PBM E-score |
| --- | --- |
| CGGTTCTC | -0.171 |
| CCGCTACG | -0.236 |
| GAGGCACC | -0.169 |
| ACCTGTTG | -0.126 |
| CAAGGGGC | -0.1 |
| AAGACGCG | -0.151 |
| ACATCCGA | 0.0152 |
| TAATGACA | 0.0997 |
| ACACAATG | 0.267 |
| AGTAACGG | -0.0546 |
| GGGATCAC | -0.0964 |
| CGGCCCTC | -0.148 |
| CCGATAGC | -0.166 |
| AGGAGTAT | 0.0083 |
| AGATAGCC | -0.135 |
| CGCAGACC | -0.0379 |
| ATCTTCTG | -0.113 |
| CCCGACGC | -0.0991 |
| AAGAAGAC | -0.0464 |
| CAGAATTC | -0.152 |
| AACCCACA | 0.168 |
| CCCGATCA | -0.112 |
| CACAGTGG | -0.0197 |
| GGACCGAC | 0.097 |
| AACATGGA | -0.00024 |

| Sequence | PBM E-score |
| --- | --- |
| GGGATAGA | -0.128 |
| GATGTGCC | -0.00921 |
| GACCTGGC | -0.19 |
| GGTGTTAC | 0.162 |
| AACACGAC | 0.0199 |
| AATCTCAA | 0.0312 |
| CCACCTCA | 0.0419 |
| ACTTAGCA | -0.22 |
| GAGCTTCC | 0.108 |
| CACCGCAA | 0.186 |
| GCTCCTCC | -0.19 |
| AGACAAAA | -0.0898 |
| ATGCTGGA | -0.001 |
| GCACTCGC | 0.0364 |
| GCAGCGGA | 0.0598 |
| AAGTGACA | 0.0587 |
| GCTAGCAC | -0.118 |
| TACCCATA | 0.166 |
| GGGTGTGA | 0.135 |
| CCTCCGCA | -0.114 |
| CATCCATA | 0.125 |
| CACAGGAA | 0.0584 |
| ACAATCGG | -0.081 |
| GCATTGAC | -0.0613 |
| GCGTGCGA | 0.00545 |

| Sequence | PBM E-score |
| --- | --- |
| GGAGGAAA | -0.015 |
| GTGCTGCA | 0.0908 |
| CCCGGAGA | 0.151 |
| CGTGAAAA | -0.0731 |
| GCTGACGA | 0.0793 |
| ATCAGGGC | -0.139 |
| CTTCATCA | -0.102 |
| CGATAGGC | -0.201 |
| AGGGACTA | 0.021 |
| ATGGTGAC | 0.26 |
| CAGAACTC | 0.0112 |
| AATGATGG | 0.205 |
| AATTCCCG | -0.2 |
| CAAGAATG | -0.0889 |
| GATAACAC | 0.0381 |
| AGGTATCC | 0.0545 |
| ACATACAC | 0.18 |
| CGTTTACC | -0.0172 |
| GATCCAAC | -0.0773 |
| CTTACAAC | -0.164 |
| CTGAGCAG | -0.00712 |
| AACGCCGC | 0.0464 |
| CCCTATAG | -0.041 |
| GTAGTAAC | -0.0181 |
| CACAAGGA | 0.232 |

| Sequence | PBM E-score |
| --- | --- |
| ACTGGGGG | -0.254 |
| AATTGCGG | 0.0349 |
| GTTCGAGA | -0.103 |
| ATAAAGCC | -0.101 |
| AACTTCCT | -0.0302 |
| CAGTAGAA | 0.0147 |
| CGGGTGAC | 0.143 |
| GCGACGCC | 0.205 |
| AGAATATG | 0.0849 |
| GCCGTCAC | -0.0509 |
| CTATTCTA | 0.0124 |
| GCTTTAGA | -0.213 |
| AGGATATA | 0.147 |
| CCAGTGTA | 0.0957 |
| ACAGCATG | 0.153 |
| AATAGCCT | 0.0684 |
| TCAGTTAA | -0.108 |
| ACTGCATG | 0.193 |
| CAAGCAAA | 0.026 |
